In the supplement of paper PMC11417369:
The other results are listed elsewhere or left out.

System: PF3D7_0420300 AP2 domain 1 (GST-tagged)
Assay: gcPBM binding intensity (ln(normalized median fluorescence intensity)); higher = stronger DNA binding
In short: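 Binding intensity values are the highest Masliner-normalised natural-log median intensity among replicate spots of either probe orientation. The binding step lasted 1 h in 1× PBS with 1% milk, 0.2 mg/ml BSA, 0.5% salmon testes DNA and 0.03% Triton X-100, using GST-tagged P. falciparum DNA-binding domains expressed in E. coli on an Agilent 4 × 180k array of primer-extended double-stranded 36-bp intergenic genomic probes plus negative controls. Alexa488 anti-GST antibody and a 488 nm scan detected bound protein.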

Compared with “TATTAAAAAAAAAAATAAAAAAATAAAATAAAATAA [CACACA_negctrl_site580]”, “TTTTTTTTTTTTATTTGTACACATTTTCATATTTTT [XGTACX_site4406]” is higher in “gcPBM binding intensity (ln)” value: 9 for the first, 9.23 for the second.

First: TATATTTACTCTAAGTGTACATATTATTTTATAATA [XGTACX_site2046]
Second: TATATATATATGTGCACACATAAAGATATTATTTTT [CACACA_site3733]
The “gcPBM binding intensity (ln)” value of the first is lower: 9.13 for the first, 9.53 for the second.

First: TAACACATAAATAAATATATACATATATATAAAATA [CACACA_negctrl_site375]
Second: AATATATATATATATACATGCATATATTCCTTCCTT [TGCATGCA_site890]
The “gcPBM binding intensity (ln)” value of the first is higher: 9.36 for the first, 9.2 for the second.

Compared with “ATTCTTTTAAACAGTACACACACACCGATATATATA [CACACA_site8213]”, “AAAAACTTATATGATACACACGATAAACAAAATAAA [CACACA_site1039]” is lower in “gcPBM binding intensity (ln)” value: 10 for the first, 9.73 for the second.

Going from “TTTGTGCCTATAAATTAACACACAGAAATATATAGA [CACACA_site8175]” to “AATATATCATAATGATGTACAAGTAAAACCGTTACA [XGTACX_site4280]”, the “gcPBM binding intensity (ln)” value rises from 9.26 to 9.46.

First: GATCTATATATCATTACACACTTGAATTACTTAAAA [CACACA_site21]
Second: CAAAAATACATTATAATAATATGCACAATAATAAAT [XGTACX_negctrl_site263]
The “gcPBM binding intensity (ln)” value of the first is lower: 9.33 for the first, 9.6 for the second.

First: ATAAAATAAAATTGGTGTACTTTTGATAAAATAAAA [XGTACX_site4264]
Second: GTGTATTTTGTGCGCACACACATGCAAAAAGAAATA [CACACA_site6660]
The “gcPBM binding intensity (ln)” value of the first is lower: 9.12 for the first, 9.55 for the second.

First: GGTAGGTGAATATATACACACATATATTATATATAT [CACACA_site1984]
Second: TACACATGTTTAAAATGTACGTTTTATAACACACAC [XGTACX_site8229]
The “gcPBM binding intensity (ln)” value of the first is lower: 9.53 for the first, 9.67 for the second.

Going from “AAAAAAAATTAAGCATGTATAAATATATATATATAT [CACACA_negctrl_site1540]” to “TTTTACAAGTATTGATAAATAAGAAATATATAAAAT [CACACA_negctrl_site529]”, the “gcPBM binding intensity (ln)” value falls from 9.24 to 8.95.

Compared with “AGAGGAAAAATAAAAGGAAAAAAGAAAATAATATTG [CACACA_negctrl_site852]”, “ATATATTACAATATATGTACTTAATTTGCTTAAATA [XGTACX_site7912]” is higher in “gcPBM binding intensity (ln)” value: 9.13 for the first, 9.14 for the second.

Compared with “ATAATATTTTAGAGCAGTACACTTTTATATTTATTG [XGTACX_site5728]”, “TAAAACAGAATGAGGAGTACAAAAAGAAGAAAAGGG [XGTACX_site1246]” is higher in “gcPBM binding intensity (ln)” value: 9.41 for the first, 9.76 for the second.

Compared with “AAAATAAATATTACATGTACATATATATATATATAT [XGTACX_site8492]”, “GTAATCCACAAACACACACACATACACATATATATA [CACACA_site2728]” is higher in “gcPBM binding intensity (ln)” value: 9.13 for the first, 10.1 for the second.

Going from “AAAAAAACAACATGCACACGCACACCCAAAAAAAGC [CACACA_site72]” to “ATCATTTTTAATAAATGTACAAGTTTTAAAAAAAAA [XGTACX_site7340]”, the “gcPBM binding intensity (ln)” value falls from 9.98 to 8.83.

Going from “AGGAGGAACAAACAAAACAATAAAAATTATAATAAA [GTGCAC_negctrl_site206]” to “AAAAGACATTTTTTTTTATAAATACACACGTACGTG [TGCATGCA_negctrl_site281]”, the “gcPBM binding intensity (ln)” value falls from 9.43 to 9.16.

Compared with “TTCAAAGACACAATCACACACATACATAAATATACA [CACACA_site687]”, TTCCAAGAAATAATAGTGCATTATTCATTTTAATAA is lower in “gcPBM binding intensity (ln)” value: 9.84 for the first, 8.98 for the second.

Going from “AATATACATAACAAGGTGCAAAAAATATTGTTCATA [GTGCAC_site9499]” to “TTATTATTATGATTATTATGATGATTATACAACTGT [TGCATGCA_negctrl_site241]”, the “gcPBM binding intensity (ln)” value falls from 9.5 to 9.29.

Compared with “ATTATATTAATTTATAGTACAATATTTATATATATG [XGTACX_site4668]”, “TATATATTACTTTTTTGTACGAATTTTACAACTACG [XGTACX_site3473]” is higher in “gcPBM binding intensity (ln)” value: 9.2 for the first, 9.28 for the second.

Compared with “TATTAAAATATTCTCACACACCAAAATATGTATGTA [CACACA_site6565]”, “AAAAAAAAAAAAAAAAAAAGAAAAGAAAATAGGGTT [GTGCAC_negctrl_site421]” is higher in “gcPBM binding intensity (ln)” value: 9.36 for the first, 9.4 for the second.

Compared with “TTTCCGGTAATATGGAGATATATGTGGGTTTTTTTT [GTGCAC_negctrl_site374]”, “ACAAAATTTACAAAATGTACAAAGTATGTGTTTTAT [XGTACX_site6462]” is lower in “gcPBM binding intensity (ln)” value: 9.48 for the first, 9.22 for the second.

Going from “AGAAAAAAGAGGGATACACACAAACATATATTTATA [CACACA_site7122]” to “ATATTTTTTTTTTTCACACACATTTATATTGTATTA [CACACA_site5695]”, the “gcPBM binding intensity (ln)” value falls from 9.95 to 9.9.

Compared with “GATTAAAATCAAAGGTGTACGCACAAATAAGTCCCA [XGTACX_site4360]”, “CACCCTTTGTTTTAGAGTACATATGTATATACGTAA [XGTACX_site7964]” is lower in “gcPBM binding intensity (ln)” value: 9.3 for the first, 9.14 for the second.

Going from “TATATATATTTATGTACACACATATATACCTTTCAT [CACACA_site5479]” to “TATTAATTATAAGATGCATGTGCAAAAATATGTTCC [TGCATGCA_site51]”, the “gcPBM binding intensity (ln)” value falls from 9.6 to 9.37.

Compared with “TTTCTTTGTATTTATAGTACATATTTTAATAACTGC [XGTACX_site6673]”, “ATAATATTTTATTATACATGCAAATTATTATATATA [TGCATGCA_site40]” is lower in “gcPBM binding intensity (ln)” value: 9.1 for the first, 9.09 for the second.

First: TAAAAATTAAAAAGGGTGCAAAAAAAAAAAAAAAAA [GTGCAC_site9733]
Second: TATATTTATTTTTAATGTACATATTTAAGAAAACTA [XGTACX_site4920]
The “gcPBM binding intensity (ln)” value of the first is lower: 8.83 for the first, 8.88 for the second.

Compared with “AACTTGTATTTATACACACACACACTAGCTTTTTTT [CACACA_site5132]”, “AGAATTAAAAACAGTTGTACAAAAAGTTGTATAAAT [XGTACX_site411]” is lower in “gcPBM binding intensity (ln)” value: 10.2 for the first, 9.64 for the second.

Going from “AGTAATAAATTTTATACATGCATAAAAAAAAAAAAA [TGCATGCA_site661]” to “TATAGCTTTCATTATACACACATCAAAAATTTAAAT [CACACA_site227]”, the “gcPBM binding intensity (ln)” value rises from 9.11 to 9.38.

First: TTAAAAATCATTTAAGAACACACAAATATTTCCATT [CACACA_site8418]
Second: GCCATTAATTTATACACACACATTATAACTTTTTAT [CACACA_site6492]
The “gcPBM binding intensity (ln)” value of the first is lower: 9.17 for the first, 10 for the second.

First: TTAAATAAAAAAATAACACACATATAAATCTATATG [CACACA_site7482]
Second: TATCAGCAATGGAAAACATGCAAAAAATTAATATAT [TGCATGCA_site623]
The “gcPBM binding intensity (ln)” value of the first is higher: 9.52 for the first, 9.25 for the second.

Compared with “TCTTCAAAGACACAATCACACACATACATAAATATA [CACACA_site8128]”, “AATACGTTTCAAAAATGTACACATATATCATAAATA [XGTACX_site8962]” is lower in “gcPBM binding intensity (ln)” value: 9.7 for the first, 9.17 for the second.

Going from “ATCAAAAATGTTATATATATATATATATATATATAT [TGCATGCA_negctrl_site71]” to “TATATAATTCAAAAATGTACATGAAATATAAATATT [XGTACX_site7984]”, the “gcPBM binding intensity (ln)” value rises from 9 to 9.29.

First: TGATTCTTTTCAAAGTGTACAGTAATTTTTATGTAA [XGTACX_site8452]
Second: ATATTATAAATTATAGGTACACACAAAAAAAAAAAG [XGTACX_site2637]
The “gcPBM binding intensity (ln)” value of the first is lower: 8.95 for the first, 9.85 for the second.

Going from “ATATCAAGCTATGAGAAAAAAAAAAAGAAAAAAAAA [CACACA_negctrl_site1370]” to “AAATATATTGCATATATACACACGTATATATATTAA [CACACA_site2759]”, the “gcPBM binding intensity (ln)” value rises from 8.92 to 9.24.

First: AAGTTTTCTTAAAGATGTACTTTTTAAAAATAAAAT [XGTACX_site3063]
Second: TCTACATCTGTATATAAACACACAACAAAAATGCTT [CACACA_site9271]
The “gcPBM binding intensity (ln)” value of the first is lower: 8.83 for the first, 9.33 for the second.

Compared with “GTATATATGTATGTATGTACTTATAAAGTTGCATAT [XGTACX_site5616]”, “ACTTTATTATATATTTGTACATATATTTTTAATTTC [XGTACX_site4144]” is higher in “gcPBM binding intensity (ln)” value: 9.24 for the first, 9.53 for the second.

Compared with “TATTTATTGTGATACTTATATTATTTCATGATTAAT [CACACA_negctrl_site738]”, “TTCTTACACAAAAAAATGAAATCAATCAAAAAAAAA [CACACA_negctrl_site869]” is lower in “gcPBM binding intensity (ln)” value: 9.26 for the first, 9.07 for the second.

Going from “TATATATTTCAATAATGTACATATAATATATATATT [XGTACX_site4124]” to “AATGTGTAGACACGCACACACAAAAAAATATTTATA [CACACA_site7384]”, the “gcPBM binding intensity (ln)” value rises from 9.13 to 9.6.

Going from “AAATTATATATAAAATGTACATATGTAGGTAATTTT [XGTACX_site5047]” to GAAAATATATTTAAGATGCACTTTAAAAATGTACTT, the “gcPBM binding intensity (ln)” value falls from 9.45 to 9.05.

First: AAGTAATCATCATAAAGTACTAAATTATATTGTCAA [XGTACX_site5841]
Second: ACATTCTGATGGTGATTATTAATTATTACAAAAATT [CACACA_negctrl_site283]
The “gcPBM binding intensity (ln)” value of the first is higher: 9.18 for the first, 9.05 for the second.

Going from “TTTTATTTTCGATGATGTACATTAAATTATACAGTA [XGTACX_site6053]” to “AAATATTACTCCTCAAGTACACATAAAAAAAAAATA [XGTACX_site2085]”, the “gcPBM binding intensity (ln)” value rises from 8.98 to 9.26.

Going from “AATATACAAAATAAATAAAATATATATATATATATA [CACACA_negctrl_site216]” to “TATTTTTTTTGATATTGTACTTTTTTATTATTTTTT [XGTACX_site566]”, the “gcPBM binding intensity (ln)” value rises from 9.29 to 9.56.

First: TAAAAATTTAAGAAAACATGCATCTAACATATATAT [TGCATGCA_site342]
Second: TTGTTTTCACCAAATACACACAAGCATACACCCCAT [CACACA_site2717]
The “gcPBM binding intensity (ln)” value of the first is lower: 9.27 for the first, 9.59 for the second.

Going from “TTACATGCTAAAATTTGTACATATATGATAAATATT [XGTACX_site2648]” to “ATACATAAATTTATACGTACATATATAGATACATAA [XGTACX_site675]”, the “gcPBM binding intensity (ln)” value rises from 9.08 to 9.3.

First: AAGTAAAATAAGTATACACACATAAATATGTAAATA [CACACA_site6467]
Second: TTTTTTTTTTCTTTTTTTTATTATATTAACGGAATT [GTGCAC_negctrl_site104]
The “gcPBM binding intensity (ln)” value of the first is higher: 9.67 for the first, 9.05 for the second.

First: AAAAAGAAATACAAATAATATATATATATATATATT [TGCATGCA_negctrl_site458]
Second: CATAAAAATTGAAGCACACACACAAAAGAAATACAA [CACACA_site1112]
The “gcPBM binding intensity (ln)” value of the first is lower: 9.22 for the first, 10.2 for the second.
